{"source": "paper PMC12136788", "binders": {"B1": {"name": "85046632_85048575_835_CDS_ENSMUSG00000024253_ENSMUST00000025101|mouse|control|control (ssRNA)", "RNA": "GGGAGUUCUACAGUCCGACGAUCGUCAGGAACAGGAGGAGACCCUAUCUGACAUAAAGAAUCCAGUCCUGCUGUGAUAAACAGUGGCUUAUUUUGAUCCACACAUAUUGAUUUGCUUUUAUCAAUACCGAAUGCCAACUGGUUCAACAGAGGAUUGAGCAUCA"}, "B2": {"name": "96264416_96274638_1980_CDS_ENSG00000134874_ENST00000376829|human|control|control (ssRNA)", "RNA": "GGGAGUUCUACAGUCCGACGAUCUAUAUGUGACAGGAGCCGACCCUUCUCUUUCUUGUGUUCUUGAUGAAUAGCUUGAACUCGAGCUGUCCAUUUGCUUUCCUGACUAUCAAGAAGCUGCAUGACAUUAUGGAAAUCCUGGGGCAACAGAGGAUUGAGCAUCA"}, "B3": {"name": "chr2:31460152:31460153:+_ENSMUSG00000026843_ENSMUST00000055244|mus_hu|motif|central (ssRNA)", "RNA": "GGGAGUUCUACAGUCCGACGAUCAUUCUGGAUCUUUUUGAUCAUUUCCCCGUUUCUUCCUAUUACAAUCCCCACAGCAAACCGGGGCACAGAUACCUCUAUACUGCCUCCUCCCAUUCGAGAGUUGAAAUCGCCGCGUACACCCAACAGAGGAUUGAGCAUCA"}, "B4": {"name": "chr17:60770872:60770873:+_ENSG00000011028_ENST00000303375|hu_hu|hu_hu_hu_mus_True|18_108 (ssRNA)", "RNA": "GGGAGUUCUACAGUCCGACGAUCUCUCUUUUCUUUUAAAAAAAAAGACAAACAAUAAUAGCACAUUUCGAGAAUCAAGAACUACAAUAGAGGGUCCGCUUUGAGUUUUUGUUCACAACAUUGUCCCCUGGGACACGGGGACUGCAACAGAGGAUUGAGCAUCA"}, "B5": {"name": "chr4:34758383:34758384:-_ENSMUSG00000039967_ENSMUST00000047950|mus_hu|FALSE|FALSE (ssRNA)", "RNA": "GGGAGUUCUACAGUCCGACGAUCCUCAUCAUCUGAACCAUCAUUGUCAUUAAACACUAUAAAAUCUGUUGAAUAGAGACUAUUCUUUUUUAUAGGUCGCUGCUCCUGUUUAGCCACAGUAUUAGUCUUCUGAUUUUCAUUGGUCAACAGAGGAUUGAGCAUCA"}, "B6": {"name": "72619223_72628188_842_CDS_ENSG00000166224_ENST00000373202|human|control|control (ssRNA)", "RNA": "GGGAGUUCUACAGUCCGACGAUCUUCUGGAGUUUUGAUCCCCUUCUCAAAGGCCAGAUCCCGAUAUGCUUUGCAGGCCAUCAGUAUGCUUUCUGUUCCCCCAGAAGUCACACAUCCACACGAAUCUGGUCCCCCAUUGAACAGCAACAGAGGAUUGAGCAUCA"}, "B7": {"name": "chr5:145543945:145543946:-_ENSG00000133706_ENST00000545646|hu_hu|hu_hu_hu_mus_True|1_78 (ssRNA)", "RNA": "GGGAGUUCUACAGUCCGACGAUCCUGAACGGCCAGUGGUGGGAAAUAAUCAAGCCAAUGUUCUGCUUCAGAAAACUUCACUAUGUCGUCAUCAGAGAGCCCAAGGGAUUUCAUAAUGUCCCACUGGUACUUAGAAGAUCCAGCCAACAGAGGAUUGAGCAUCA"}, "B8": {"name": "chr12:48362563:48362564:+_ENSG00000134291_ENST00000256686|hu_hu|hu_hu_hu_mus_False|8_88 (ssRNA)", "RNA": "GGGAGUUCUACAGUCCGACGAUCUCCGUCAAGCCCUUCGAUAGACCCAUAGACUCUAAACUGUAAUCACUUUGUAUGGGGAAGGAAAAGAAACGCCAAAAACUUUCCAAAAAGCGGGGGUGGGGUGUCCCAGGCCUGGGAGGUCAACAGAGGAUUGAGCAUCA"}, "B9": {"name": "chr3:179287964:179287965:+_ENSG00000136518_ENST00000429709|hu_hu|hu_hu_hu_mus_True|8_18 (ssRNA)", "RNA": "GGGAGUUCUACAGUCCGACGAUCCUUGAGUGGUGAGAUGGCCUCCAUGUUCUCCCUGGGCACGCGGAGGGCAUUGGUGUCUAUGUAGUAGGUGGGCCCGCCCUGCUUGCCUUUGUCGCCAUCUAUUUCCAUUAAUGUACUUCCCAACAGAGGAUUGAGCAUCA"}, "B10": {"name": "chr4:57314706:57314707:+_ENSG00000128050_ENST00000264221|hu_mus|hu_hu_hu_mus_True|18_38 (ssRNA)", "RNA": "GGGAGUUCUACAGUCCGACGAUCCAGAAUUUCAAAAAUAGCUUGUGUGGCAUGACUCAUGAUGUCCACUUCAGUCUGCCCUAUAACAAGGCCAGCAAAGCAAAAUUUUGCAGCAAUCAGCUGUUCCUCAGACCACUGUGGAUCCAACAGAGGAUUGAGCAUCA"}, "B11": {"name": "chr1:184023491:184023492:+_ENSG00000198860_ENST00000361641|hu_hu|motif|central (ssRNA)", "RNA": "GGGAGUUCUACAGUCCGACGAUCCAUGAGGUCCAGGUAAACCAAGAACGCUACAUAAACUUGGGUGGCAUCUCCGGUAUCGGAUUCCAUCAUUUCUAGAUACUUAGGGUGAGUGCCCAUCCAGGCGUCCUCAGGGGCCCACGACAACAGAGGAUUGAGCAUCA"}, "B12": {"name": "chr13:36129161:36129162:+_ENSG00000172915_ENST00000537702|hu_hu|FALSE|FALSE (ssRNA)", "RNA": "GGGAGUUCUACAGUCCGACGAUCCAAAUAUUCGAAGUUUGAAAUUUCCCUUCUUUGCCAGCGCUGAGUCAUAUUGGAAGAUUUAUAAAGCUGUCGAGGAGUGGCCAAUGAUAUCCUCCUGGCUUGUGGCAGACCAUAGCUGGUCAACAGAGGAUUGAGCAUCA"}, "B13": {"name": "chr17:27085315:27085316:-_ENSG00000173065_ENST00000581407|hu_mus|FALSE|FALSE (ssRNA)", "RNA": "GGGAGUUCUACAGUCCGACGAUCACUAAACCUAGAAGGGCAAUGUGUGUUGCCUGAGGAGAGCGUCCCGGCUCCCUAUCUAUACCCUGGGUGCUGAAUAUGAAGACUUCGACUAUCUGUGGGAUCAGGGGCUCGGGUGCCAGGCAACAGAGGAUUGAGCAUCA"}, "B14": {"name": "chr8:82586177:82586178:-_ENSG00000133731_ENST00000256108|hu_hu|FALSE|FALSE (ssRNA)", "RNA": "GGGAGUUCUACAGUCCGACGAUCUCCUUUUCUGGCAGUGUACAUCUUGCCUUCCACACAACUGUACACAACUCCAAAUUCUAUCUUUUUAUUUACAGCAAAGCCAAUUGAAACAGCUACAAAAGGAAAUCUAUGUACAAAGUUCAACAGAGGAUUGAGCAUCA"}, "B15": {"name": "chr7:75932113:75932114:+_ENSG00000106211_ENST00000248553|hu_hu|hu_hu_hu_mus_False|28_48 (ssRNA)", "RNA": "GGGAGUUCUACAGUCCGACGAUCCUGCGACCACUCAUCGGGCAACCGGGGCACCCCGAAAGCUUGAUCGAAGAGGCGGCUGUGUGCGUACCAGUCGUCCCGGAAUGCCCAGCUGGGCGGGCUCCGCAGCAGCGAGAAGGGCACCAACAGAGGAUUGAGCAUCA"}, "B16": {"name": "chr9:74900086:74900087:+_ENSMUSG00000007656_ENSMUST00000169492|mus_hu|motif|central (ssRNA)", "RNA": "GGGAGUUCUACAGUCCGACGAUCUUGUCCCAGAUGAGGAUAUCUUGCUUUUAAUUUUGCUUCUUCUGCUUUCUCUGGACGGGUCACUUUAUCUUCCAUUUCCUUCUGCUCCUCCGCGGAGGCUGCCUCGGGGACUUCCGCAGACAACAGAGGAUUGAGCAUCA"}, "B17": {"name": "chr16:94664741:94664742:+_ENSMUSG00000040785_ENSMUST00000117648|mus_hu|mus_mus_mus_hu_False|1_1 (ssRNA)", "RNA": "GGGAGUUCUACAGUCCGACGAUCUGGUACUGAUCUUGGUAGCUGAUAUUCAGGAGAAAGGCUGGCCAAGGGUGUAUAUAUGCUGGUGUACUGGGGCAAACCUGGUAACACGUUUAUGUAUGCUGGCGGUGUCUGGGUGCCAAACAACAGAGGAUUGAGCAUCA"}, "B18": {"name": "chr6:41757443:41757444:+_ENSG00000214736_ENST00000398881|hu_mus|hu_hu_hu_mus_False|48_58 (ssRNA)", "RNA": "GGGAGUUCUACAGUCCGACGAUCGAACCGUGCAGAGGCAACAUCUCAGCCGACACUGGGGGAUGGGGGGGCAGUGGGAAACUAGGCAGGGAAGGGGAGGGAGUCAACUUCAGCUGCCACUCAGGUAGGAUCUUGUGGUCACAGCAACAGAGGAUUGAGCAUCA"}, "B19": {"name": "chr6:31368937:31368938:+_ENSMUSG00000025609_ENSMUST00000026699|mus_mus|motif|central (ssRNA)", "RNA": "GGGAGUUCUACAGUCCGACGAUCGGGAGGAUAGUUGCUCUCUGAAGACCAUCUGGAAGACUGAUCAUUUGGUUUAUCCACGGAAAUGUUCUCGGGAAGGUAGGUGGAGGAGAAGGAGCUCCACUUAUGCAGCGCGUAGGGCAGCAACAGAGGAUUGAGCAUCA"}, "B20": {"name": "chr17:31789506:31789507:-_ENSMUSG00000061613_ENSMUST00000166526|mus_mus|FALSE|FALSE (ssRNA)", "RNA": "GGGAGUUCUACAGUCCGACGAUCAGACUGGGAAGAGUUUUGAGGGUUACGGUAAAUGUUCAAGAGGGCAAUGGUCUGGCUAAAGGUUGGUUUAUUGUGCAACCGAGAACAUCUGUCUCCAUGACGACAUGCUCCGAUUUUGAACAACAGAGGAUUGAGCAUCA"}, "B21": {"name": "135565860_135565980_4621_3pUTR_ENSG00000125484_ENST00000372146|human|control|control (ssRNA)", "RNA": "GGGAGUUCUACAGUCCGACGAUCGCAAUUUGAAUAGGAAACAGAAAACAUUUCUGAGCAGACUGUUUAGAAGUGCCUCCAAGGGCUGGUCUGCACUACCUAUCAAUGCGGGGUGGGGGUGGGGAGGUUGCCGUCAUGGUAUCACAACAGAGGAUUGAGCAUCA"}, "B22": {"name": "chr11:10819154:10819155:-_ENSG00000110321_ENST00000525681|hu_mus|motif|central (ssRNA)", "RNA": "GGGAGUUCUACAGUCCGACGAUCCUUAGGAUGUAAUUAUUGCAUGCUGCUAAUAUUCUAUCUAAACAUUAAGGAUACUCCGGAAGUAUUUGAUGGUAGACUAUGAUUAAGACAUCACACUACAAAAACCUUAUGCAGAAGGAACAACAGAGGAUUGAGCAUCA"}}, "note": "This is one part of the list.", "data": [{"target": "T1, UNK ZnF1-3 (human, UniProt Q9C0B0 31-174)", "T1 sequence": "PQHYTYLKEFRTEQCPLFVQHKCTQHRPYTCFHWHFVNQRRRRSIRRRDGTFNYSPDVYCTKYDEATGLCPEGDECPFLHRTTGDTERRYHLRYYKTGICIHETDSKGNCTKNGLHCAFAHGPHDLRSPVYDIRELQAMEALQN", "experiment": "nsRBNS (natural sequence RNA bind-n-seq); RBNS binding buffer (assumed for nsRBNS): 25 mM Tris pH 7.5, 150 mM KCl, 3 mM MgCl2, 0.01% Triton X-100, 500 ug/ml BSA, 20 U/ml SUPERase-In, 4 C; UNK is unkempt and MSI1 is Musashi-1; names of the RNAs are library labels; protein concentration not given here; high values mean tight binding", "units": {"binding signal": "enrichment R"}, "values": [{"binder": "B1", "binding signal": 0.768}, {"binder": "B2", "binding signal": 0.724}, {"binder": "B3", "binding signal": 0.888}, {"binder": "B4", "binding signal": 1.3}, {"binder": "B5", "binding signal": 0.727}, {"binder": "B6", "binding signal": 0.527}, {"binder": "B7", "binding signal": 1.49}, {"binder": "B8", "binding signal": 2}, {"binder": "B9", "binding signal": 0.607}, {"binder": "B10", "binding signal": 1}, {"binder": "B11", "binding signal": 1.04}, {"binder": "B12", "binding signal": 1.07}, {"binder": "B13", "binding signal": 1.05}, {"binder": "B14", "binding signal": 1.12}, {"binder": "B15", "binding signal": 0.629}, {"binder": "B16", "binding signal": 0.692}, {"binder": "B17", "binding signal": 1.12}, {"binder": "B18", "binding signal": 2.96}, {"binder": "B19", "binding signal": 1.85}, {"binder": "B20", "binding signal": 1.15}, {"binder": "B21", "binding signal": 1.39}, {"binder": "B22", "binding signal": 1.09}]}]}
